Source: publication PMC4336329 (PLoS ONE, 2015)
In all, about 310,000 compounds went through this assay and about 14,000 (4.5%) showed an effect of 50% or more. Effects have a minus sign here. The list shows a part of the results.

Target: human ether-à-go-go-related gene (hERG) potassium channel (human, UniProt Q12809)
Assay: primary screen, population patch clamp on CHO cells stably expressing hERG
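Note: peak tail current of the secondary pulse compared with the same well before compound.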

Chain of human ether-à-go-go-related gene (hERG) potassium channel (Q12809 whole entry, looked up): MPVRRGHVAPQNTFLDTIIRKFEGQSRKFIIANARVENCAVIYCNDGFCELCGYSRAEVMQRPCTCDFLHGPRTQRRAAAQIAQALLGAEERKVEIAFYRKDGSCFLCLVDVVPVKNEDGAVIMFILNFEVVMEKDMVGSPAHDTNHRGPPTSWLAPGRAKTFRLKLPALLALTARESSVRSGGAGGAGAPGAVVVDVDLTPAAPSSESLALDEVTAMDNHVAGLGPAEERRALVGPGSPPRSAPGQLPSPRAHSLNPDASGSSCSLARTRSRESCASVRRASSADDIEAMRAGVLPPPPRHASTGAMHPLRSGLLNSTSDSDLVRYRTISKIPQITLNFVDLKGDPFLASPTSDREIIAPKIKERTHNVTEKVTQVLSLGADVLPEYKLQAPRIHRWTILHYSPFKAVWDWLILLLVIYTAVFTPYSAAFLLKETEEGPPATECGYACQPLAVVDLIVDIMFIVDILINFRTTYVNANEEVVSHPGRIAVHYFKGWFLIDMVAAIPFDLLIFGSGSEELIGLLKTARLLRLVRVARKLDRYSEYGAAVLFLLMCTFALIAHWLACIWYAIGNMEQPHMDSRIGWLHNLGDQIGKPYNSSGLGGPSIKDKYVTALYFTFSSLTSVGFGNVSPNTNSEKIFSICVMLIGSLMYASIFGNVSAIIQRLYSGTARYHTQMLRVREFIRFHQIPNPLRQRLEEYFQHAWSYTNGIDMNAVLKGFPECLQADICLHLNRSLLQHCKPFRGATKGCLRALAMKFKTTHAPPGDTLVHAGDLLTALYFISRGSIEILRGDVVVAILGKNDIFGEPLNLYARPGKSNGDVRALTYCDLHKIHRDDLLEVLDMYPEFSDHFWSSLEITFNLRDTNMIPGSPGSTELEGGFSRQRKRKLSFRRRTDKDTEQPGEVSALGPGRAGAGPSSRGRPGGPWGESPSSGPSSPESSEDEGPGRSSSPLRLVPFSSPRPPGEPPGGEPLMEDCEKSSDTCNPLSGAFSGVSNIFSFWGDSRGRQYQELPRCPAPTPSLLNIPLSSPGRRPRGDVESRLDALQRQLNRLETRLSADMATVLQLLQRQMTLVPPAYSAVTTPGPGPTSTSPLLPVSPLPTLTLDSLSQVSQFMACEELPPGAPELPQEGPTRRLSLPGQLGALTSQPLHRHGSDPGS

Compound	hERG current change (%, negative = inhibition) at 10uM [%]
CC(C)COC(=O)N(C)c1ccc(C(O)(C(F)(F)F)C(F)(F)F)cc1	6.44
CCOC(=O)c1ccc(NC(=O)COC)cc1	-9.45
CC1(C)CC2(CC(c3ccc(F)cc3)c3ccc(O)cc3O2)NC(=S)N1 (centres unmarked)	-31.4
S=C(NCCc1ccccc1)NC1CC2CCC(C1)N2Cc1ccccc1 (centres unmarked)	-35.8
Cc1[nH]c2ccccc2c1/C=N/NC(=O)CNC(=O)Cc1ccccc1	15.5
CCC1Oc2ccc(C)cc2N(CC(=O)NCCN2C(C)CCCC2C)C1=O (centres unmarked)	-9.64
Cc1ccc(S(=O)(=O)NCCC(=O)Nc2ccc(Cl)c(Cl)c2)cc1C	11.9
CC(C)CN1CCN(Cc2ccc(C(F)(F)F)cc2)CC1CCO (centres unmarked)	-56.6
CCOC(=O)Nc1ccc(NCc2ccc(F)cc2)nc1N.O=C([O-])/C=C\C(=O)[O-]	-19.9
Cc1cc(Nc2cc(C)on2)n2ncnc2n1	-1.14
Cc1nc(C)c(C(=O)NCCC(c2ccccc2)c2ccccc2)o1	4.74
CC(C)(C)c1ccc(CSc2nnc(-c3ccccn3)n2Cc2ccco2)cc1	-14.7
COC(=O)c1c(C(=O)OC)c2cc(C)ccn2c1Cl	-24.9
CCOC(=O)C1(Cc2cccc(Cl)c2)CCCN(C(=O)C(C)(C)C)C1 (centres unmarked)	9.04
CCCCc1nc2sc3c(c2c(=O)[nH]1)CCC3	10.3
COc1ccc(C2(C)NC(=O)N(CC(=O)Nc3ccc4c(c3)CCC4)C2=O)cc1OC (centres unmarked)	-8.71
CC(CCc1ccco1)NC(=O)CCc1nnc2ccc(NCc3ccc(Cl)cc3)nn12 (centres unmarked)	-15.3
COc1ccc(NC2=NC(=S)N(c3ccc(C)cc3)C23CCCCC3)cc1	15.3
COc1ccc(-n2ncc3c(N4CCC(C)CC4)ncnc32)cc1	-12.5
CCCCCCn1c(=O)[nH]c2c(c1=O)CCC2	-3.06
CCOC(=O)CNC(=O)N1CCCC(C(=O)c2ccc3c(c2)OCO3)C1 (centres unmarked)	11.1
CCN(c1ccccc1)S(=O)(=O)c1cc2c3c(c1)C(C)C(=O)N3CCC2 (centres unmarked)	-34.7

Compound	hERG current change (%, negative = inhibition) at 10uM [%]
Cc1ccc2c(c1)C(c1ccncc1)=NNC(c1ccc(F)cc1)=N2	-0.32
Cc1ccc(C(=O)N/N=C/c2ccc(-c3ccccc3[N+](=O)[O-])o2)cn1	-32.5
CC(C)OCCCn1c(SC(C)C(=O)NCC2CCCO2)nc2cc(Cl)ccc2c1=O (centres unmarked)	-20.6
O=S(=O)(NCC1CCCO1)c1ccc(Br)cc1 (centres unmarked)	8.84
Cc1ccc(S(=O)(=O)N2CCOCC2)cc1NC(=O)CNCC1CCCCC1.O=C(O)C(=O)O	-21.1
CC1(C)Cc2c(sc3ncnc(NN)c23)CO1	-5.74
Cc1ccc(NC(=O)CSc2ccc(-c3ccccn3)nn2)c(C)c1	10.1
CSc1ncc(CN2CCCC(C(=O)c3cccc(Cl)c3)C2)cn1 (centres unmarked)	-47.1
CC1CC(OC(=O)c2ccccc2)(c2ccccc2)C(C)CN1C (centres unmarked)	-8.66
CCOC(=O)c1c(NC(=O)c2ccoc2C)sc2c1CCC2	9.61
Cc1nn(-c2ccc(N3CCOCC3)nn2)c(C)c1CCC(=O)Nc1ccc(F)cc1	-9.57
FC(F)(F)c1cccc(Cn2c3[n+](c4ccc(C(F)(F)F)cc42)CCCCC3)c1.[Cl-]	-17.6
COC(=O)C1=C(O)/C(=C\c2ccc(CNC(=O)C(=O)Nc3ccc(C)cc3)o2)N=C1C	20.5
OC(C#CCCN1CCCCC1)(c1ccccc1)C1CCCCC1 (centres unmarked)	-46.3
CCn1c(N2CCN(C(=S)Nc3ccc(OC)cc3)CC2)nc2ccccc21	-68.3
COc1ccc(C2NC(=O)c3ccccc3O2)c(OC)c1OC (centres unmarked)	6.22
OC(COc1ccc2cc(Br)ccc2c1)CN1CCN(c2ccccn2)CC1 (centres unmarked)	1.85
O=C(c1cc2cc(Br)ccc2s1)N1CCOCC1	-21.7
Cc1cc(C)cc(NC(=S)N2CCC(N(C)CC3CCCO3)CC2)c1 (centres unmarked)	-52
O=C(NCc1ccco1)c1cccc(NC(=O)c2ccco2)c1	-10.3
Cc1ccc(C(=O)NCc2ccco2)cc1S(=O)(=O)N1CCOCC1	0.668
Cc1cc(C)cc(OCC(=O)OCC(=O)N(CC(C)C)c2c(N)n(Cc3ccccc3)c(=O)[nH]c2=O)c1	-4.75
